Results taken from PubChem BioAssay AID624417 (National Center for Advancing Translational Sciences (NCATS), 2012).
In all, about 410,000 compounds went through this assay and about 6,400 (1.6%) were called active. Inconclusive results, whose numbers are uncertain, are shown with a selection of clear calls. The call rests on the fitted dose curve; in most records, active means well fitted inhibition curve with a large enough effect; inconclusive means small, poorly fitted or top-dose-only effect; inactive means no such curve, though single readings can be large or run the other way. Potencies of inconclusive entries are doubtful fits and often do not repeat.

Target: Glucagon-like peptide 1 receptor (Homo sapiens) (UniProt P43220)
Chain of UniProt P43220 (P43220 whole entry, looked up): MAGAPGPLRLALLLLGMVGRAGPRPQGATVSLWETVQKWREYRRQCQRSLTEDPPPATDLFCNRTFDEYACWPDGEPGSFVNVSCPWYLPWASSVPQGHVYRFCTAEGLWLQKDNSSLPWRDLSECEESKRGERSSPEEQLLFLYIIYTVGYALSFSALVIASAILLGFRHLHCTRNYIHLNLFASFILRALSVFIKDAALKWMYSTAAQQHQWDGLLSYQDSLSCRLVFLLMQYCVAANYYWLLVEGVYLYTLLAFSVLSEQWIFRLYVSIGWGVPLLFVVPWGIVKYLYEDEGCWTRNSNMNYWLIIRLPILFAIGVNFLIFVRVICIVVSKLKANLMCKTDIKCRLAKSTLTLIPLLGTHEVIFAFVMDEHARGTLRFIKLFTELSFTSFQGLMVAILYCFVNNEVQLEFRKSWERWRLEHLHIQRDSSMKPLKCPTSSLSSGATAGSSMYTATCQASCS
Assay: qHTS of GLP-1 Receptor Inverse Agonists (Inhibition Mode); further: nearly all actives have a fitted effect of over 55% in size
Settings: HEK293 GLP-1R CRE-luciferase, luminescence, 24 h; Potency: GLP-1R form is constitutively active unless noted; activity change, negative = inhibition: at 38.3 µM (top of the series) unless noted
Summary of the method: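 Seeding at 200 cells/uL, 12 h culture, 24 hr compound treatment, then luciferase reagent and a luminescence read; cells are HEK293 stably expressing a constitutively active GLP-1R plus cAMP-responsive luciferase.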
On the % scale 0 is the no-effect control and ±100 the full control effect; potency means the concentration at half of the fitted maximal effect; tags describe the fitted curve by direction and shape.

SMILES	Potency	activity change, negative = inhibition
CCOC(=O)c1ccc(N2C(=O)c3n[nH]c(-c4cccs4)c3C2c2ccc(Cl)cc2Cl)cc1 (centres undefined)	inconclusive: 8.91 µM [inhibitor, partial curve, poor fit]	
Cc1ccccc1-n1c(-c2ccco2)nc2ccccc2c1=O	inconclusive: 12.6 µM [inhibitor, partial curve]	
Cc1cccc(CN2CCN(CC(=O)N3CCC4(CC3)OCCO4)C2=O)c1		inactive: -8.89%
COc1ccccc1N1C(=O)NC(=O)C2(Cc3cc(C)ccc3N(C)C2)C1=O (centres undefined)		inactive: -3.56%
Cc1oc(-c2cccs2)nc1CSCC(=O)N1CCC2(CC1)OCCO2		inactive: 17.1%
COP(=O)(OC)C(Nc1ccccn1)c1ccccc1 (centres undefined)		inactive: -2.11%
CC1=C/C(=N\NC(=S)NCCc2ccccc2)CC(C)(C)C1	inconclusive: 12.6 µM [inhibitor, partial curve, poor fit]	
O=C(c1cn(Cc2ccccc2F)c2ncccc12)C(F)(F)F		inconclusive: -37.6% [inhibitor] [at 38.3 µM, GLP-1R form is constitutively active]
Fc1ccccc1CCNCc1cccc(Cl)c1Cl	inconclusive: 14.1 µM [inhibitor, partial curve, poor fit]	
O=C1NC(=O)C(=Cc2cccc(OCCOc3ccccc3)c2)C(=O)N1	inconclusive: 10 µM [inhibitor, partial curve]	
C[C@@H]1CC2C3CC=C4C[C@@H](O)CC[C@]4(C)C3CC[C@]2(C)[C@H]1O (some centres undefined)		inactive: 65.7%
CCOc1ccc(CN(CCc2ccc3c(c2)OCO3)Cc2ccc(OC)c(Br)c2)cc1	inconclusive: 12.6 µM [inhibitor, single point]	
O=C1CN=C(c2ccc(Br)cc2)c2c(sc3c2CCCC3)N1CCN1CCCCC1	inconclusive: 7.08 µM [inhibitor, partial curve, poor fit]	
OC(c1ccc(F)cc1)(c1ccc(F)cc1)[C@@H]1CCCN1	inconclusive: 10 µM [inhibitor, single point]	
O=c1[nH]c2ccccc2n1C1CCN(C(c2cccc3ccccc23)c2nnnn2Cc2ccccc2)CC1 (centres undefined)	inconclusive: 28.2 µM [inhibitor, single point]	
CC(=O)NC(Cc1ccc(N(CCCl)CCCl)cc1)C(=O)NC(C(=O)O)C(C)C (centres undefined)		inactive: 12.2%
O=C(c1ccccc1)C(CN1CCCC1)c1ccccc1 (centres undefined)	inconclusive: 17.8 µM [inhibitor, single point]	
Cn1c(=O)oc2cc(S(=O)(=O)N3CCCc4ccccc43)ccc21	inconclusive: 2.51 µM [inhibitor, full curve]	
CN1CCC2(CC1)c1ccccc1-c1ccccc12	active: 11.2 µM [setting not given]	
